About 120 (0.25%) of roughly 48,000 compounds were called active. Another 4% or so got no clear call; they are omitted. The call rests on the fitted dose curve; in most records, active means well fitted activation curve with a large enough effect; inconclusive means small, poorly fitted or top-dose-only effect, or another doubt; inactive means no such curve, though single readings can be large or run the other way. This is one part of the list.
experiment: Primary qHTS for Identification of Small Molecule Activators of Huntingtin-Antisense Promoter Activity; conditions: HEK293 HTT-AS promoter firefly luciferase reporter (activity 0% = vehicle and -100% = no light), 24 h; series mostly up to 57.5 µM; activity change, positive = activation: at the top concentration; further: nearly all actives have a fitted effect of over 55% in size
How it was run: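 HEK293 cells carrying firefly luciferase reporters were seeded at 2,500 per well in Opti-MEM and cultured for 24 h. They were then treated with compounds at up to 57.5 uM final for 24 h at 37 degrees C before Dual-Glo luminescence readout.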

Activity change, positive = activation, inactive:
COc1cc(Br)c(C2CC(=O)Nc3cc(OC)c(OC)c(OC)c32)cc1OC (stereo not given) -26.9%
CCc1ccc(NC(=O)CC2C(=O)OCCN2CC)cc1 (stereo not given) -19.3%
Cc1oc(-c2cccc(Br)c2)nc1CN1CCC(C(=O)NCCc2ccc(Cl)cc2)CC1 10.2%
CCOC(=O)c1ccc(N2C(=O)c3n[nH]c(-c4cccs4)c3C2c2cccc(F)c2)cc1 (stereo not given) -25%
CCOc1ccccc1NC(=O)C(CC(C)C)NS(=O)(=O)c1ccc2c(c1)CCN2C(C)=O (stereo not given) 0%
CCc1ccccc1NC(=O)Cn1ncc2c(C)n(Cc3ccccc3F)c(C)c2c1=O -15%
CC(C)CNC(=O)CCSc1nc(-c2ccc3c(c2)OCO3)cc(C(F)(F)F)n1 -12.9%
O=C(Cn1c(=O)n(Cc2nc(-c3ccccc3)no2)c(=O)c2cc3c(cc21)OCO3)Nc1ccc(Cl)cc1 -18.1%
Cc1ccc(C)c(N2CCN(c3ccc(NC(=O)c4cccs4)cc3C(=O)O)CC2)c1 5.8%
CC(C)[C@H](N)C(=O)OCCOCn1cnc2c(=O)[nH]c(N)nc21
CCCc1nnc(NC(=O)Cc2coc3cc(C)cc(C)c23)s1 -19.2%
CCCN1CCN(CCCNC(=O)c2cnn(-c3ccc(F)cc3)c2-n2cccc2)CC1 -15.3%
CCOc1ccc(Nc2nc3ccccc3n3c(CC)nnc23)cc1 -9.88%
O=C(Cn1c(=O)n(-c2ccccc2)c(=O)c2sc3ccccc3c21)N1CCCC1 8.19%
CC(C)c1ccc(NC(=O)CN2C(=O)COc3ccc(S(=O)(=O)Nc4ccccc4)cc32)cc1 -32.4%
O=[N+]([O-])c1cc(-c2nc(-c3cccnc3)no2)ccc1NCc1ccccc1 -6.84%
O=C(Nc1ccc(Br)cc1)C1CCN(S(=O)(=O)c2cccc3nsnc23)CC1 -10.6%
CC(C)OCCCNC(=O)CCCn1c(SCC(=O)c2ccc(F)cc2)nc2c(sc3ccccc32)c1=O -8.48%
COc1ccc(-c2nn3c(=O)cc(CN4CCN(C(=O)Nc5ccc(C)c(Cl)c5)CC4)nc3s2)cc1 -7.32%
COc1ccc(CCNC(=O)c2nnc(Cc3ccc(Cl)cc3)o2)cc1OC -15.1%
Cc1ccc2oc(=O)c3cnn(CC(=O)Nc4cccc(C(F)(F)F)c4)c3c2c1 -8.21%
Nc1c(-c2nc(-c3ccc(Cl)cc3)cs2)c2ccccn2c1C(=O)c1ccc2c(c1)OCO2 -8.11%
COCCCNC(=O)c1cc2c(=O)n3cccc(C)c3nc2s1 14.1%
Cc1c(C)n(Cc2ccc(Cl)cc2)c2ccc(C(=O)NCCc3ccc(S(N)(=O)=O)cc3)cc12 -47.8%
CO[C@@H]1[C@@H](OC(N)=O)[C@@H](O)[C@H](Oc2ccc3c(O)c(NC(=O)c4ccc(O)c(CC=C(C)C)c4)c(=O)oc3c2C)OC1(C)C
